{"source": "patent US20260242478A1", "about": "(published 2026)", "binders": {"B1": {"name": "anti-CD28 scFv (disulfide) (scFv)", "scFv": "QVQLVQSGAEVKKPGASVKVSCKASGYTFTSYYIHWVRQAPGQCLEWIGSIYPGNVNTNYNEKFKDRATLTVDTSISTAYMELSRLRSDDTAVYFCTRSHYGLDWNFDVWGQGTTVTVSSGGGGSGGGGSGGGGS[sequence of about 100 residues not given]", "notes": "also called Anti-CD28 scFv (VH - linker 1 - VL) Disulfide mutation: G44C, G235C"}}, "assay_in_all_cases": "binding ELISA, biotinylated peptide on neutravidin plate, scFv titrated", "key": {"Peptide-87": {"biological_target": "T1, Peptide-87", "T1 peptide": "YCAGHAWQYINKCL"}, "Peptide-41": {"biological_target": "T2, Peptide-41", "T2 peptide": "MDWCPRDLWVHCFA"}, "Peptide-79": {"biological_target": "T3, Peptide-79", "T3 peptide": "ACDTYFAGMINECF"}}}
{"binder": "B1", "values": [{"measurement": "EC50", "setting": "Peptide-87", "value": 156, "unit": "nM"}, {"measurement": "EC50", "setting": "Peptide-41", "value": 98.5, "unit": "nM"}, {"measurement": "EC50", "setting": "Peptide-79", "value": 73.2, "unit": "nM"}]}
